The values below come from US20100047253A1 (Amgen, published 2010).

This assay concerns the target T1, IL-13 receptor alpha 2 on HDFa cells (human, UniProt Q14627 27-380).
T1 construct: whole, on cells; also called IL-13Rα2; IL-13Ra2
T1 sequence (looked up): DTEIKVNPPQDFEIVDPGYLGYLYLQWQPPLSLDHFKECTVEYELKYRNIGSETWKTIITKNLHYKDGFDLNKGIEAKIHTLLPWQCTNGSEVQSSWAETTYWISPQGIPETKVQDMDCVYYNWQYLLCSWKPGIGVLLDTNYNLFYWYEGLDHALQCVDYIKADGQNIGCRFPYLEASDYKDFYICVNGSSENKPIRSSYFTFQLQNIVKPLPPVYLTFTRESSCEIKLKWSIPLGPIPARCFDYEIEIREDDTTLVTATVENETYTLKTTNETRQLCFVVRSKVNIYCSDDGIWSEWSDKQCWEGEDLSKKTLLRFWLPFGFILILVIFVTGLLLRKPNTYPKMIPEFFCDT
The assay can be described thus: Flow cytometry on HDFa cells: IL-13 pre-incubated with 731 and added to cells with or without anti IL-13Ra1, anti IL-13Ra2 or anti IL-4R, detection of 731 with goat anti Hu IgG-Fc-Cy5. In general terms: A flow cytometer gives signals particle by particle.

B1: Recombinant Human IL-13 (R & D 213-IL-005) (ligand)
chain: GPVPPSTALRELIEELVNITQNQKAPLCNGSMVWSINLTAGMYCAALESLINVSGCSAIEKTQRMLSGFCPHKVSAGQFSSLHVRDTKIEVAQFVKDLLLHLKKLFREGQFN
notes: also called IL-13 antigen (R&D Systems)
As to B1, the binding result is on record as “binds”.
